# Hit rate of the full screen: of about 310,000 compounds, about 14,000 (4.5%) showed an effect of 50% or more. Effects have a minus sign here. The list shows a part of the results.
# Biological target: human ether-à-go-go-related gene (hERG) potassium channel (human, UniProt Q12809)
# Assay: primary screen, population patch clamp on CHO cells stably expressing hERG
# 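Also: peak tail current of the secondary pulse compared with the same well before compound.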
# human ether-à-go-go-related gene (hERG) potassium channel, sequence (Q12809 whole entry, looked up): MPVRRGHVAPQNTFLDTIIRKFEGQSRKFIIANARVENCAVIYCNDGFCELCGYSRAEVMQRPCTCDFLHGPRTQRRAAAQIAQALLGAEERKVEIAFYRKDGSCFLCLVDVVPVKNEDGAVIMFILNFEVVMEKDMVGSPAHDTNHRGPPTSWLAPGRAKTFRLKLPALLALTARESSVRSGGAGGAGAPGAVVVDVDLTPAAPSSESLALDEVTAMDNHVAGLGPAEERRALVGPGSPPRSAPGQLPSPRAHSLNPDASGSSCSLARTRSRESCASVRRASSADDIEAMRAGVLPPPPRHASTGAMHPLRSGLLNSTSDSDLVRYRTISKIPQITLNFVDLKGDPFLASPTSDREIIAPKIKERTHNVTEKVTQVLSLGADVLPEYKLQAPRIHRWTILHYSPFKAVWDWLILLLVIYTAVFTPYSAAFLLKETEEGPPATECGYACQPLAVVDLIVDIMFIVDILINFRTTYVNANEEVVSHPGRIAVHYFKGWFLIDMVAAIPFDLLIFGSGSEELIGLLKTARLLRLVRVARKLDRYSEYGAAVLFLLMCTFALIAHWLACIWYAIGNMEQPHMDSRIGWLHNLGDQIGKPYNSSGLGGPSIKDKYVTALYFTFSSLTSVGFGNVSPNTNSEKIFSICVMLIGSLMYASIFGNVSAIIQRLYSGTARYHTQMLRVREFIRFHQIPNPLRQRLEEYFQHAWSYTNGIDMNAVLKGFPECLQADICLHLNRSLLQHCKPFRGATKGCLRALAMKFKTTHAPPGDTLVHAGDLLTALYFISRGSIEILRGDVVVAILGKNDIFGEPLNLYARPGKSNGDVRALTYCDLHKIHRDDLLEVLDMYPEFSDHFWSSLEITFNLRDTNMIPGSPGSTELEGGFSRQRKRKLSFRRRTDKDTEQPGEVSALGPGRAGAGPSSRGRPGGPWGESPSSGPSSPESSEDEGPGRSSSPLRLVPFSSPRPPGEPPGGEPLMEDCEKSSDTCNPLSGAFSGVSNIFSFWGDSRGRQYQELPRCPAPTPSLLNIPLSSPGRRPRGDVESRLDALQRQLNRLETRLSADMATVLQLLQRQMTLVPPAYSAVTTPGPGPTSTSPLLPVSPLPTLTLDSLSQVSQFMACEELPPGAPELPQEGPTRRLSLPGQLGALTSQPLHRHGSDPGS
row,SMILES,"hERG current change (%, negative = inhibition) at 10uM [%]"
1,O=[N+]([O-])c1cnccc1NC1CCCCC1,5.48
2,CCOc1ccc(NC(=O)c2nn(C)cc2Br)cc1,-16.1
3,CCCn1c(C)nc2cc(Cl)c(N3CCN(c4nc(-c5ccc(C)cc5)cs4)CC3)cc21,-2.29
4,CC(C)(C)N1C(=O)[C@H]2[C@@H](c3ccc(Br)cc3)N3C(=O)N(c4cccc(F)c4)C(=O)[C@@]3(Cc3ccccc3)[C@H]2C1=O,2.4
5,Cc1ccc(OCc2ccc(C(=O)NN)o2)c([N+](=O)[O-])c1,1.58
6,CN(c1ccc(C(=O)NCCc2ccccc2)cc1)S(C)(=O)=O,4.46
7,CC(C)[C@H](NC(=O)N1CCn2c1nc1ccccc12)C(=O)NCCc1ccccc1,6.76
8,Cc1ccc(-c2nnc(-c3cccnc3)o2)cc1,-3.7
9,O=C(Cn1c(=S)nc2ccccn21)N1CCc2ccccc2C1,-7.49
10,C=CCNC(=S)N1CCC(C(N)=O)CC1,20.2
11,Cc1csc(NC(=O)C2CC(=O)N(c3ccc4c(c3)OCCO4)C2)n1 (stereo not shown),-11
12,CCOc1ncccc1C(=O)NCCc1ccc(OC)cc1,5.07
13,CSc1ccccc1NC(=O)c1c(Br)cnn1C,-1.39
14,O=C(NNc1ccccc1)Nc1ccccc1F,22.7
15,O=C(CN1CCCC1)Nc1cc(C(F)(F)F)cc(C(F)(F)F)c1,-17.9
16,O=C(Cc1ccccc1)N1CCN=C1SCc1ccc([N+](=O)[O-])cc1,-55.5
17,CCOC(=O)C1=CN(c2cccc(F)c2)C=C(C(=O)OCC)C1c1cc(OC)c(O)c([N+](=O)[O-])c1,-3.91
18,CC1=C(C(=O)OC(C)C)C(c2cccs2)C(C(=O)OC(C)C)=C(C)N1,0.453
19,COCCN(Cc1ccccc1)C(=S)Nc1ccc(OC(F)F)cc1,-69.8
20,COc1cccc(NC(=O)Nc2nccc(C)n2)c1,-9.3
21,CCCCSc1nnc([C@@H]2CCCN2C(=O)OC(C)(C)C)o1,-12.2
22,CCCCC(=O)OCC(=O)Nc1ccc(C)c(F)c1,14.6

row,SMILES,"hERG current change (%, negative = inhibition) at 10uM [%]"
1,CCOC(=O)N1CCN(C(c2ccc(C(C)C)cc2)c2sc3nc(C)nn3c2O)CC1 (stereo not shown),-17.8
2,CC(C)C(=O)Nc1ccc2c(c1)oc1ccccc12,5.96
3,Cc1cc(OCC(=O)NCCc2ccc(Cl)cc2)c2c(C)cc(=O)oc2c1,6.87
4,O=C(Nc1ccccc1)Nc1ccccc1C(=O)NCc1ccccc1,10
5,CCC(=O)Nc1ccc2c(c1)nc(CN1CCN(C(C)=O)CC1)n2C,-0.94
6,COc1ccc(N2CCOCC2)c(NC(=O)COc2cccc(C)c2)c1,-1.5
7,CCn1cc(C(=O)N(CCCN2CCOCC2)Cc2ccco2)c(=O)c2ccc(C)nc21,0.42
8,Cc1ccc(/C=C2\C(=O)NC(=O)N(CCc3ccc(F)cc3)C2=O)o1,17.1
9,C=Cc1ccc(N=Cc2c(O)ccc3ccccc23)cc1,15.4
10,CC1(c2nnc(-c3cccc(Cl)c3)o2)CC(c2cccc([N+](=O)[O-])c2)=NO1 (stereo not shown),-1.17
11,OCCN(Cc1ccccc1)Cc1ccccc1Cl,-4.5
12,COP(=O)(OC)c1nc(-c2ccccc2)oc1N1CCOCC1,8.32
13,COC(=O)c1sc(N)c(C(=O)OC)c1COC(=O)CNS(=O)(=O)c1cccc(C#N)c1,-9.99
14,NCCNC(=O)Cn1c(=O)c2c3c(sc2n(Cc2ccccc2)c1=O)CCCC3,0.982
15,COc1ccc(NC(=O)NNC(=O)c2ccc(-c3ccccc3)cc2)cc1,4.72
16,CC1=CCCC(C)(C)C1/C=C/C(C)=N/NC(=O)c1ccncc1 (stereo not shown),-24.6
17,Cn1c(=O)c2c(SCC(=O)Nc3ccc4c(c3)OCCO4)nc(CC(C)(C)C)nc2n(C)c1=O,-12.5
18,O=C(c1ccco1)N1CCC(c2ccccc2)C1 (stereo not shown),-30.5
19,C/C(=N\NC(=O)c1ccccc1)c1ccc(C)c([N+](=O)[O-])c1,16.6
20,O=C1CCCCCC1C1(O)C(=O)Nc2ccc(Br)cc21 (stereo not shown),14.1
21,CC1CCCC(NC(=O)COC(=O)c2sc3ccccc3c2Cl)C1C (stereo not shown),15.2
22,COc1ccc(NC(=O)c2ccc(N3C(=O)C4CC=C(C)CC4C3=O)cc2)c(OC)c1 (stereo not shown),-12.3

row,SMILES,"hERG current change (%, negative = inhibition) at 10uM [%]"
1,O=C(CN1CCN(C(=O)c2cccc(F)c2)CC1)Nc1ccccc1F,-70.1
2,COC(=O)C1=C(C)N(Cc2cccnc2)C(=O)/C1=C\c1sccc1C,-79.2
3,CCCCn1c(N)c(N(CC(C)C)C(=O)c2cc(C)oc2C)c(=O)[nH]c1=O,8.94
4,CCOc1ccc(CN(Cc2ccco2)S(=O)(=O)c2ccc(-n3cnnn3)c(OC)c2)cc1,-7.18
5,Cl.O=C(COc1ccc2ccc(=O)oc2c1)N1CCN(c2ccccc2)CC1,-9.19
6,COC(=O)c1ccc(NC(=O)CSc2nnc(CNc3ccc(F)cc3)n2C)cc1,-4.32
7,COCCN1C(=O)/C(=C2/C(=O)N(CC(=O)Nc3ccccc3Cl)c3ccccc32)SC1=S,20.6
8,O=C1CC(c2ccccc2)CC2=C1C(c1ccccn1)Nc1ccccc1N2 (stereo not shown),9.64
9,O=C(Nc1nc2c(s1)CCCC2)c1ccc(Br)o1,9.31
10,C=CCn1c(SCC(=O)Nc2nnc(C)s2)nnc1-c1cccnc1,23.4
11,CN(C)c1cccc(C(=O)OCC(=O)N2CCc3ccccc3C2)c1,-15.3
12,CCOc1cc(-c2c(C#N)c(N)nc3c2CCCC3)ccc1O,8.69
13,CCOc1ccc(CC(=O)Nc2cccc(-c3ccc4nnc(C)n4n3)c2)cc1,-51.1
14,CCc1ccccc1NC(=S)NC1CC2CCC(C1)N2Cc1ccco1 (stereo not shown),-29.8
15,CCOc1ccc(N(CC(=O)Nc2ccc(C)c(C)c2)S(C)(=O)=O)cc1,12.2
16,O=C(NCc1ccc(N2CCCC2=O)cc1)c1ccc(F)cc1,10.3
17,Brc1ccc(-c2ccc(/C=N/Nc3nc(N4CCOCC4)nc(N4CCOCC4)n3)o2)cc1,-16.7
18,Brc1ccc(-c2cnnc(N3CCCC3)n2)cc1,-9.15
19,Cc1nnc(C)n1/N=C/c1cccc(Oc2ccccc2)c1,-14.2
20,Cc1nc(CS(=O)(=O)c2ccc(Cl)cc2)cc(Sc2ccccc2Cl)n1,-22.5
21,CC(=O)Nc1ccc2nc(NC(=O)CS(=O)(=O)c3ccccc3)sc2c1,3.27
22,CN(c1ccc(C(=O)Nc2ccc3c(c2)OCO3)cc1)S(C)(=O)=O,2.39

row,SMILES,"hERG current change (%, negative = inhibition) at 10uM [%]"
1,COc1cccc(C(=O)C2CCCN(C3CCOCC3)C2)c1 (stereo not shown),-50.4
2,CN(Cc1ccccc1)C(=C(Cl)Cl)C(=C1NCCN1)[N+](=O)[O-],11.4
3,CCN(CC)CCn1c(NC(=O)c2ccc(Cl)cc2)nc2ccccc21,-31.5
4,O=[N+]([O-])c1cc(/C=N/n2c(-c3ccncc3)n[nH]c2=S)ccc1Cl,9.57
5,Cl.NC[C@@]12CCCC1C1CCC2C1 (stereo partly shown),-8.07
6,COC(=O)Cc1c(CSc2ccccc2)oc2ccc(O)c(CN(C)C)c12,-47.8
7,Cc1cc(C)cc(N2C(N)=NC(N)=NC2c2cccc(Cl)c2)c1.Cl (stereo not shown),3.91
8,O=C(CSc1nc(C2CC2)nc2ccccc12)N1c2ccccc2Sc2ccc(C(F)(F)F)cc21,-4.52
9,S=C(Nc1ccc(Nc2ccccc2)cc1)NN1CCOCC1,3.04
10,COc1ccc(-c2csc3[nH]c(=S)n(-c4ccccc4)c(=O)c23)cc1OC,23.8
11,O=C(OC1CCOC1=O)c1cc(-c2ccc(Br)cc2)nc2ccccc12 (stereo not shown),-6.58
12,C=CCN(c1ccccc1)S(=O)(=O)c1cccc(C(=O)NCC(c2ccccc2OC)N2CCCC2)c1 (stereo not shown),-70.5
13,CC(C)(C)C1CCC(C(=O)OCC(=O)Nc2ccc3[nH]c(=O)[nH]c3c2)CC1 (stereo not shown),25.3
14,COc1ccc(C)cc1NC(=S)N1CCOCC1,13.9
15,COc1ccc(C(=O)CSc2n[nH]c(-c3ccncc3)n2)cc1[N+](=O)[O-],5.84
16,C/C(=N\Nc1cccc(C(=O)O)c1)c1cc2ccccc2o1,9.54
17,Cc1nc(N2CCN(Cc3ccccc3)CC2)nc2c1C(=O)CCC2,-13.5
18,CSc1ccc(CCNC(=O)C2CCCN(c3ncnc4c3nc3n4CCCCC3)C2)cc1 (stereo not shown),-61.8
19,CCOC(=O)c1nnn2c3ccccc3c(=O)n(C)c12,-9.47
20,CC1(C)C2CCC13CS(=O)(=O)N[C@@H]3C2 (stereo partly shown),20.5
21,Cc1nc(Cl)cc(CS(=O)(=O)c2ccc(Cl)cc2)n1,9.44
22,O=C(COc1ccccc1F)NNC(=O)c1ccc2c(=O)n3c(nc2c1)CCC3,0.849
